The assay deals with NCI-H322M lung. Briefly: inhibition of tumour cell growth, NCI panel, 48 h.

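48-hour exposure; five concentrations; linearly interpolated endpoints. Abbreviation: GI50, concentration required for 50% inhibition of growth. TGI denotes the concentration required for complete inhibition of growth.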

Our source for the TGI and GI50 values is PubChem BioAssay (NCI).

In turn, `NS(=O)(=O)c1ccc(N=C2C(=O)Nc3ccccc32)cc1` came in with a TGI greater than 100 µM. `C=C1c2[nH]c3ccccc3c2CC(C(=O)O)N1C(O)c1ccc(S(=O)(=O)O)cc1` (centres undefined) displayed a TGI greater than 100 µM. `O=C(Cc1ccccc1)NN1C(=O)C(Cl)C1c1cccc([N+](=O)[O-])c1` (centres undefined) returned a TGI greater than 100 µM.

In turn, `NC(Cc1ccccc1)c1nn[nH]n1` (centres undefined) displayed a TGI greater than 100 µM. Consider `CC1=NC=C(O)c2ccccc2O1`, for which the TGI was greater than 100 µM. Still for that read-out and setting: as for `OCCCc1cnco1`, the figure is greater than 100 µM. Consider `O=C(NS(=O)(=O)c1ccc(NC[C@H]2COCCO2)c([N+](=O)[O-])c1)c1ccc(N2CCN(CC3=C(c4ccc(Cl)cc4)CC4(CCC4)CC3)CC2)cc1Oc1cnc2[nH]ccc2c1`, for which the GI50 was 2.03 µM and the TGI was 6.06 µM.

Regarding `CCN(CC)CC(O)COc1c(Br)c(Br)c(Br)c2c1OC(C)(C)C2` (centres undefined), the GI50 was 14.1 µM and the TGI was found to be 29.3 µM. The matching figures for `NCCCn1c2c(c3ccc([N+](=O)[O-])cc3c1=O)C(=O)c1cc(F)ccc1-2`: 0.122 µM and 1.24 µM.

Turning to `N#C/C(=C\c1ccc(F)cc1)n1nc2cccc(F)c2n1`, the GI50 is 4.91 µM and the TGI was greater than 100 µM.

`O=C(CCN1CCC(CCO)CC1)Nc1ccc2c(c1)C(=O)c1ccc(NC(=O)CCN3CCC(CCO)CC3)cc1C2=O` yielded a TGI of 43.1 µM. For the compound `COc1ncc(-c2ccc3nccc(C#CCN4CCN(S(C)(=O)=O)CC4)c3c2)cc1NS(=O)(=O)c1ccc(F)cc1F`, the GI50 was 0.0529 µM and the TGI stood at 2.35 µM. On to `CN1CCN(c2ccc3[nH]c(C4=C(O)C(=O)[C@@H]5C(=C4O)N=C(CO)N5C)nc3n2)CC1`, for which the TGI is greater than 100 µM. With `CCCCCCc1cc2cc(-c3csc(/C=C/c4ccccc4)n3)c(=O)oc2cc1O`, the GI50 was 40.7 µM and the TGI was greater than 100 µM.

Turning to `C/C(=N\O)c1cccc(Nc2cc(-c3ccccc3)nc3c(O)cccc23)c1`, the GI50 is 8.76 µM and the TGI was 31.8 µM. The matching figures for `O=Cc1ccc(-c2ccc(-c3ccc(C=O)o3)[se]2)o1`: greater than 64.1 µM and greater than 100 µM. Regarding `COC(=O)c1ccc(C)cc1C1CN=NC12Cc1cc(C)ccc1C2=O` (centres undefined), the TGI is greater than 93.5 µM. Same read-out and setting: as for `CC1(C)OC2C(CO)OC(n3ccc(N)nc3=O)C2O1` (centres undefined), the figure is greater than 100 µM. For the compound `COc1ccc(/C=C/C(=O)c2ccc(Nc3nc(Nc4ccc(F)cc4)nc(Nc4ccc(Cl)cc4)n3)cc2)cc1`, the GI50 was greater than 100 µM and the TGI is greater than 100 µM. Regarding `O=C1/C(=C/c2ccc(Cl)cc2)N=C(c2ccccc2)N1/N=C/c1ccccc1O`, the TGI came out at 23.3 µM.

As for `O=C1Oc2cc3c(c4cccc1c24)OCN(c1ccccc1)C3`, the TGI was greater than 100 µM. In the case of `c1ccc2cc(CNCCCCNCCCNCc3ccc4ccccc4c3)ccc2c1`, the TGI amounted to 2.89 µM. Regarding `CCCCCCCc1cscc1-c1cscc1Br`, the TGI was greater than 100 µM. In the case of `FC(F)(F)c1ccc(-c2ncc(-c3ccc(C(F)(F)F)cc3)c(NCc3cc(C(F)(F)F)cc(C(F)(F)F)c3)n2)cc1`, the GI50 was 5.16 µM and the TGI was 65.5 µM. `S=C(Nc1ccc2c(c1)oc1ccccc12)c1cccs1` came in with a TGI greater than 100 µM. `Cc1cc(C(O)(c2ccc(Nc3ccccc3)cc2)c2ccc(Nc3ccc(S(=O)(=O)O)cc3)cc2)ccc1N` (centres undefined): the GI50 is 2.32 µM and the TGI turned out to be 6.29 µM. Compound `CC(=O)OCC1OC(OC(C)=O)C(Nc2ncc(-c3ccc(C)cc3)s2)C(OC(C)=O)C1OC(C)=O` (centres undefined) yielded a TGI of 41.2 µM.

As for `CCCCCCCC(CC(=O)NC(CO)C(=O)NC(CO)CC(C)C)OC(=O)CC(CCCCCCC)OC(=O)CC(CCCCCCC)OC1OC(C)C(O)C(OC2OC(C)C(O)C(O)C2O)C1O` (centres undefined), the TGI was 25 µM. As to `CCCNCC(O)CNc1ccc(NCC(O)CNCCC)c2c1C(=O)c1ccccc1C2=O` (centres undefined), the TGI is 7.39 µM. In the case of `CC(C)COP(C)(=O)C(N)(C(F)(F)F)C(F)(F)F` (centres undefined), the TGI was greater than 100 µM. Regarding `CCC1c2cc3n(c(=O)c2COC1O)Cc1c-3nc2ccccc2c1Cl` (centres undefined), the TGI is greater than 100 µM. In turn, `O=C(O)C1=CN(c2ccncc2)C(c2ccco2)=CC1c1ccccc1[N+](=O)[O-]` (centres undefined) displayed a TGI of 31 µM.

In turn, `C/C(=C\CNc1ncnc2c1ncn2CCC(=O)OC(C)(C)C)CO` showed a TGI greater than 100 µM. With `CCOC(=O)c1cn(CC)c2ccc3ccsc3c2c1=O`, the TGI is greater than 100 µM.

Compound `C1=C(c2ccccc2)O[C@H](COCc2ccccc2)C(OCc2ccccc2)[C@@H]1OCc1ccccc1` (some centres undefined) had a TGI greater than 10 µM.

`Cc1ccc(S(=O)(=O)ON2C(=O)c3c(N)c(C#N)c(-c4ccccc4)c(-c4ccccc4)c3C2=O)cc1` yielded a TGI greater than 100 µM. `COC1=CC(=O)OC(/C=C(C)/C=C/C2=C(C)CCCC2(C)C)C1` (centres undefined) displayed a TGI greater than 100 µM. The compound `COC1=CC(=O)c2c(cc3c(c2O)-c2c(OC)cc4cc5c(c(O)c4c2OC(=O)CC(C)(O)C3)C(=O)CC(C)(O)C5)C1=O` (centres undefined) had a TGI of 3.84 µM. In turn, `Cc1cccc2c1c(=O)c1c(O)cc3c(c1n2C)C=CC(C)(C)O3` came in with a TGI greater than 100 µM. Turning to `COc1cc(/C=C/C(=O)c2c(C)nc3ccccc3c2C)ccc1OCCCCOc1cc2c(cc1OC)C(=O)N1CCC[C@H]1C=N2`, the GI50 was 1 µM and the TGI came to 2.75 µM. Turning to `Fc1ccc(C2SCc3nc4ccccc4n32)cc1F` (centres undefined), the TGI was greater than 100 µM. For `CCN1C(=O)N(CC)C2C1NC(=S)N2/N=C/C=C/c1ccccc1OC` (centres undefined), the GI50 is 0.0589 µM and the TGI was greater than 100 µM. Take `C#C[C@]1(O)[C@@H](CO)O[C@@H](n2ccc(N)nc2=O)[C@@H]1O`: the TGI worked out at 1.44 µM. Regarding `NC(=S)N/N=C(\CCC(=O)Nc1ccccc1[N+](=O)[O-])CC(=O)c1ccco1`, the TGI is greater than 100 µM. Regarding `c1ccc(-c2cn(-c3ccccc3)c(-c3ccccc3)n2)cc1`, the GI50 is 16.6 µM and the TGI is 33.4 µM. On to `O=C1C(=C([O-])c2ccccc2)C(=O)c2ccccc21.O=C1C(=C([O-])c2ccccc2)C(=O)c2ccccc21.[Co+2]`, for which the GI50 is greater than 100 µM and the TGI is greater than 100 µM.

Take `COc1ccc2c(c1)-c1nc(=O)n(CCCN(C)C)c3ccc([N+](=O)[O-])c(c13)N2`: the TGI was determined as 11.9 µM. On the same count and under the same terms, as for `C=CC(OC(=O)C(C)C)c1ccc(OC(=O)C(C)C)cc1` (centres undefined), the figure is 8.91 µM; as for `Cn1c(=O)c2[nH]c(CCCc3ccc([N+](=O)[O-])cc3)nc2n(C)c1=O`, greater than 100 µM; as for `CCOC(=O)Nc1n[nH]nc1Cl`, greater than 100 µM.

On to `C/C(=N/NC(=S)N1CC2CCC(CC2)C1)c1cnccn1`, for which the TGI worked out at 9.36 µM. Still for that read-out and setting: as for `Cc1cc2c(cc1C)[n+](=O)c(C(=O)CC(=O)C(=O)Nc1ccccc1C(C)C)c(C)n2[O-]`, the figure is greater than 100 µM; as for `O=C1CCCC2=C1CC1=C(CCCC1=O)N2c1ccc([N+](=O)[O-])cc1`, greater than 100 µM; as for `O=C(O)CNCCc1ccccc1`, greater than 100 µM. As for `C=C(COC(C)=O)CC(/C=C(\C)CC/C=C(\C)CO)OC(C)=O` (centres undefined), the TGI was greater than 100 µM. `C=C(CCC/C(C)=C/C=C/[C@H](C)CCCc1ccoc1)C[C@@H]1OC(=O)[C@H](C)[C@@H]1O` displayed a TGI of 10.3 µM.

Compound `CC(=O)SC(SC(C)=O)SC(C)=O` had a TGI greater than 100 µM.

Take `c1ccc(-c2cc(-c3ccncc3)cc(-c3ccncc3)n2)cc1`: the TGI was greater than 100 µM. In turn, `Cc1c(-c2nc(N)c(C#N)c(N)c2C#N)c(=O)oc2ccccc12` showed a TGI greater than 100 µM.
